Reference: PubChem BioAssay AID504466 (National Center for Advancing Translational Sciences (NCATS), 2011)
About 4,200 (1.3%) of roughly 330,000 compounds were called active. The inconclusive results got no clear call from the source; some entries with a clear call stand among them for comparison. Calls come from the whole dose curve; as a rule, active = well fitted activation curve with a large enough effect; inconclusive = small, poorly fitted or top-dose-only effect; inactive = no such curve, though single readings can be large or run the other way. A potency beside an inconclusive call is a rough fit, not a confirmed value.

Assay: qHTS screen for small molecules that induce genotoxicity in human embryonic kidney (HEK293T) cells expressing luciferase-tagged ELG1; note: nearly all actives have a fitted effect of over 60% in size
Conditions: HEK293T ELG1-luciferase reporter, luminescence, 16 h; series mostly up to 46 µM
Summary of the method: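 Luminescence read-out: rising ELG1-luciferase signal, reflecting elevated ELG1 protein under genetic stress, flags genotoxic compounds. Cells were treated for 16 hr at 37 °C before ONE-Glo detection.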
Potency is the fitted concentration of half-maximal effect; tags give direction and shape of the fitted curve.

Row | Compound | Potency
1 | C/C(=N\Nc1cccc(C(=O)O)c1)c1ccc2c(c1)Nc1ccccc1S2 | inconclusive: 20.6 µM [activator, partial curve, poor fit]
2 | Cc1ccc2nc(Cl)c(/C=N/n3c(C)nnc3C)cc2c1 | inconclusive: 25.9 µM [activator, partial curve, poor fit]
3 | C=CCNC(=O)C1CC(=O)N(c2ccc(OCc3ccccc3Cl)cc2)C1 (stereo not drawn) | inconclusive: 18.3 µM [activator, partial curve, poor fit]
4 | CCCCCCCCCCS(=O)(=O)N/N=C/c1ccc(O)cc1 | inactive
5 | O=C(NNC(=S)NC1CCCCC1)c1ccc2c(c1)OCO2 | inactive
6 | COc1ccccc1NC(=O)Nc1nc(CC(=O)NCc2ccc(F)cc2)cs1 | inactive
7 | Fc1ccc(-n2cc(-c3ccccc3)[n+]3c2SCC3)cc1 | inactive
8 | Cc1ccc2c(CN(C)Cc3cccc(F)c3)cc(=O)oc2c1 | inconclusive: 10.3 µM [activator, partial curve]
9 | Cc1ccc(C(=O)Nc2cccc(C(=O)N/N=C/c3ccccc3F)c2)cc1 | inconclusive: 7.3 µM [activator, partial curve]
10 | CCOC(=O)Cc1csc(SC(C)C(=O)NC2CCCCC2C)n1 (stereo not drawn) | inactive
11 | Cc1ccc(Cl)c(OCC(=O)Nc2cccnc2)c1 | inconclusive: 18.3 µM [activator, partial curve]
12 | COc1cc(OC)cc(C(=O)Nc2nc3ccccc3[nH]2)c1 | inconclusive: 3.26 µM [activator, single point]
13 | CCOc1ccc(OCc2cccc(C(=O)N3CCCC3)c2)cc1 | active: 0.651 µM
14 | S=C(c1ccc(-c2ccccc2)o1)N1CCCCC1 | inconclusive: 2.59 µM [activator, full curve, poor fit]
15 | COc1ccc(-c2cnc[nH]2)cc1 | inactive
16 | COc1ccc2cc(C(=O)NCc3ccco3)c(=O)oc2c1 | active: 5.8 µM
17 | O=C(c1ccc(-c2cccc(C(F)(F)F)c2)o1)N1CCCC(C(F)(F)F)C1 (stereo not drawn) | inconclusive: 29.1 µM [activator, single point]
18 | O=C(COC(=O)C1=COCCO1)Nc1ccc2c(c1)OCO2 | inconclusive: 20.6 µM [activator, single point]
19 | Cc1ccc2nc(-c3ccc(NC(=O)CSc4nc(N)cc(=O)[nH]4)cc3)sc2c1 | inconclusive: 5.17 µM [activator, partial curve]
20 | Cc1ccc(C2CC(=O)Oc3cc(C)c(Br)c(C)c32)cc1 (stereo not drawn) | inactive
21 | O=C1N=c2ccccc2=C1c1[nH]c(=S)[nH]c1O | inconclusive: 23.1 µM [activator, single point]
22 | CSc1ccc(-c2ccco2)nn1 | inconclusive: 5.8 µM [activator, full curve, poor fit]
23 | CCc1nnc(NC(=O)/C=C/c2ccco2)s1 | inconclusive: 14.6 µM [activator, partial curve, poor fit]
24 | CS(=O)(=O)c1ncc(Cl)c(C(=O)Nc2ccc(N3CCOCC3)cc2)n1 | inconclusive: 23.1 µM [activator, single point]

Row | Compound | Potency
25 | C=CCn1c(SC(F)F)nc2scc(-c3ccco3)c2c1=O | inconclusive: 29.1 µM [activator, single point]
26 | Cc1nnc(SCC(=O)Nc2ccc([N+](=O)[O-])cc2)n1CC1CCCO1 (stereo not drawn) | inconclusive: 0.0052 µM [activator, full curve, poor fit]
27 | COc1ccc(S(=O)(=O)N(Cc2ccccc2)Cc2nc3ccccc3c(=O)[nH]2)cc1 | inactive
28 | O=C(/C=C/c1cn(-c2ccccc2)nc1-c1ccc2c(c1)OCCO2)NCCO | inactive
29 | COCCN(C(=O)c1ccco1)c1nc(-c2ccccc2)cs1 | inactive
30 | CCOc1ccc2nc(N3C(=O)CNC3=S)sc2c1 | active: 20.6 µM
31 | CC(C)C(=O)Nc1ccc(NC(=O)c2ccccn2)cn1 | inconclusive: 1.16 µM [activator, partial curve]
32 | CN1CCN(c2ccc(C(=O)c3ccc(F)cc3)cc2)CC1 | active: 13 µM
33 | Cc1ccc(N/N=C(\C#N)C(N)=S)cc1C | inactive
34 | CC1CCCC(NC(=O)c2ccc3c(c2)OCO3)C1C (stereo not drawn) | active: 18.3 µM
35 | O=C(/C=C/c1c(Cl)cccc1Cl)NCc1ccccc1 | inconclusive: 29.1 µM [activator, partial curve, poor fit]
36 | O=C(Nc1cccc(F)c1)c1ccco1 | inactive
37 | Cc1ccc2nc(N3C(=O)C(O)=C(C(=O)c4ccco4)C3c3cccc(O)c3)sc2c1 (stereo not drawn) | inconclusive: 35.5 µM [activator, partial curve, poor fit]
38 | COC(=O)CCc1sc(Nc2ccccc2)nc1-c1ccc(OC)cc1 | inconclusive: 32.6 µM [activator, partial curve, poor fit]
39 | Fc1ccc(-c2cn3ccccc3n2)cc1 | inconclusive: 2.06 µM [activator, full curve]
40 | CC(C)c1ccc(OCc2ccc(C(=O)N3CCCC3)o2)cc1 | inconclusive: 4.11 µM [activator, partial curve]
41 | C=CCOc1ccccc1CN1CCCC(CCC(=O)N(C)CCc2ccccn2)C1 (stereo not drawn) | inactive
42 | CCOC(=O)c1sc(NC(=O)c2cccs2)cc1C | active: 2.06 µM
43 | Cn1cnc([N+](=O)[O-])c1Sc1nnc(-c2cccnc2)n1C | inconclusive: 16.4 µM [activator, single point]
44 | Cc1ccc(-c2nsc3c(N4CCC(C(N)=O)CC4)ncnc23)cc1 | inconclusive: 5.17 µM [activator, partial curve]
45 | Cc1cc(/C=N/NC(=O)c2cccc([N+](=O)[O-])c2)c(C)n1-c1ccccc1 | inconclusive: 16.4 µM [activator, partial curve, poor fit]
46 | Cc1ccc(NC(=O)Nc2ccc3c(c2)OCO3)c(OC(F)F)c1 | inconclusive: 4.61 µM [activator, partial curve]
47 | Cc1cccc(NC(=O)CSc2nnc(-c3ccco3)o2)c1 | inconclusive: 23.1 µM [activator, partial curve, poor fit]
48 | CN=C1S/C(=C\c2cc(C)n(-c3ccccc3F)c2C)C(=O)N1C | inconclusive: 1.46 µM [activator, partial curve, poor fit]
